From patent US20190062414A1

Substrate: IIICS isoform of fibronectin (human) (UniProt P02751)
Assay: Biacore (SPR), scFv; set-up not described

B1: scFv(SW01) (scFv)
scFv: [letters of about 100 residues omitted]NRYIFDYWGQGTLVTVSSGGGGSGGGGSGGGGSSELTQDPAVSVALGQTVRITCQGDSLRSYYASWYQQKPGQAPVLVIYGKNNRPSGIPDRFSGSSSGNTASLTITGAQAEDEADYYCNSSPKAPRPVVFGGGTKLTVLG
  Kd: 262 nM
  koff: 0.048 s⁻¹
  kon: 184000 M⁻¹ s⁻¹
